Read counts are not given, so values of variants with three or more changes are uncertain.
B1: LINE1-mini (parent)
chain: GGCAGAGCUCAACACAGCGUGGCAAAGUGGCUGUGGCUAGACUGCC

Variants of: B1
Assay: self-cleavage, relative activity (ratio to wild type); higher = more cleavage; in vitro, sequencing; the parent is a self-cleaving ribozyme

Variant | self-cleavage
G17C G29U A39G | 0.3
G17C G29U C31A G33A | 0.14
G17C G29U C37A | 0.04
G17C G29U C46A | 0.32
G17C G30A C31A | 0.1
G17C G33A C37A | 0.04
G17C G33A C37U | 0.02
G17C G33A U38C | 0.03
G17C G33C A41G | 0.02
G17C G33U U34G | 0.02
G17C G33U U43A | 0.14
G17C G35C G36U U38A | 0.03
G17C G36A C42G C46G | 0.02
G17C G36C U38G G40U C46G | 0.07
G17C G44C C46G | 0
G17C U20A A26U | 0.25
G17C U20A C45A C46U | 0.04
G17C U20A G22U | 2.34
G17C U20A G27A U38C | 0.45
G17C U20C A39C | 0.02
G17C U20C A41U U43A | 0.03
G17C U20C C23A A24U | 1.31
G17C U20C G33A U34A C42A | 0.02
G17C U20G A24U C45A | 0.06

Variant | self-cleavage
G17C U20G G21A C23A G29A G33C A39C C42U | 0.02
G17C U20G G29U | 0.04
G17C U20G G30U G40U | 0.02
G17C U28A U43A | 0.09
G17C U28A U43G | 0.04
G17C U28C C37G C42A | 0
G17C U28C C46G | 0.05
G17C U28C G44C | 0.07
G17C U28G C42A | 0.11
G17C U32A G33U | 0.06
G17C U32G C37U | 0.02
G17C U34A A41U | 0.03
G17C U34A C42A G44A | 0.02
G17C U34C G36U C37U | 0.1
G17C U34C U38G G40A | 0.08
G17C U34G A41C | 0.02
G17C U34G U38G A39C | 0.12
G17C U43A G44U | 0.06
G17U A24C A25G G29U | 0.06
G17U A24C G29A | 0.45
G17U A24C G29U C37A | 0.03
G17U A24C G40U | 0.08
G17U A24C U28A G35C | 0.01
G17U A24G A25C G30U A39G | 0.08

Variant | self-cleavage
G17U A24G A25U G40U | 0.17
G17U A24G G36U | 0.01
G17U A24G U32C | 0.01
G17U A24U A25C U34G | 0.03
G17U A24U A39U C45A | 0
G17U A25C G29U | 0.34
G17U A25U G27A U38A | 0.06
G17U A25U G27U U38G | 0.18
G17U A26C C31A | 2.55
G17U A26C C31U G36C C42U | 0.02
G17U A26U G27A U28A C45G | 0.3
G17U A26U G36U | 0.09
G17U A26U G40U | 0.01
G17U A39C A41C | 0.02
G17U A39C C42G | 0.01
G17U A39C C46U | 0.32
G17U A39C G40U | 0.15
G17U A41U U43C | 0.04
G17U C18A A39G G44C | 0.01
G17U C18A C45A | 0
G17U C18A C45G | 0.06
G17U C18A G21U | 0.05
G17U C18A G22A G36A | 0.07
G17U C18A G22A G44A | 0.11

Variant | self-cleavage
G17U C18A G22C G44A | 0.12
G17U C18A G29A C31U | 0.15
G17U C18A G29U G33U | 0.02
G17U C18A G33A | 0.08
G17U C18A G40U C45A | 0.01
G17U C18A U20C A39C C46A | 0.04
G17U C18A U43C C46G | 0.06
G17U C18G A24U A39G | 0.05
G17U C18G A25C G36C | 0.07
G17U C18G C23U G40C C42U | 0
G17U C18G G30A | 0.67
G17U C18G G36A | 0.03
G17U C18G U28C C45U | 0.1
G17U C18U C23A A24G G40A | 0.04
G17U C18U G22A A24C C46U | 0.05
G17U C18U G36U | 0.02
G17U C23A A24C A41G | 0.05
G17U C23A A41G | 0.09
G17U C23A G29A | 0.6
G17U C23A U34C | 0.04
G17U C23G G27C G29A | 2.61
G17U C23G U28C | 0.36
G17U C23U C45A | 0.03
G17U C31A G35C C46A | 0.09

Variant | self-cleavage
G17U C31A U43C | 0.2
G17U C31G G40A | 0.04
G17U C31G U32C U34C U38C | 0.01
G17U C31U G44U | 0
G17U C31U U34G | 0.01
G17U C37A C45U | 0
G17U C37U A41G C45A | 0.02
G17U C42U U43C | 0.16
G17U C42U U43C C46G | 0.1
G17U G19A A25C | 0.48
G17U G19A G22A C23G | 0.26
G17U G19A G29U U43A | 0.02
G17U G19A G30C C45A | 0.02
G17U G19C G27A U28A | 1.53
G17U G19C U20A | 0.39
G17U G19U A24C G35A | 0.01
G17U G19U C46G | 0.11
G17U G19U G21U G33U C46A | 0.04
G17U G19U G22C G29C | 0.08
G17U G19U G27C | 0.21
G17U G21A G33A A41U U43C | 0.06
G17U G21A G33U | 0.07
G17U G21A U38A | 0.09
G17U G21C A39C | 0.11

Variant | self-cleavage
G17U G21C G30A G33A U34C | 0.06
G17U G21C U28A G29U G44A | 0.36
G17U G21C U34C | 0.04
G17U G21U A25U | 0.13
G17U G21U A39G | 0.08
G17U G21U C23G | 0.03
G17U G21U C23U | 0.39
G17U G21U G29U U32G | 0.04
G17U G21U U34G G36U | 0.01
G17U G22A A24U | 0.06
G17U G22A A26C | 0.08
G17U G22A A41C U43C | 0.02
G17U G22A A41G G44A | 0.04
G17U G22A C42A C46G | 0.06
G17U G22A G40A C45A | 0.1
G17U G22A U34C A41U | 0.11
G17U G22A U34C C45A | 0.02
G17U G22C A24G C46G | 0.21
G17U G22C C45A | 0.12
G17U G22U A25G | 0.06
G17U G22U C23A U34A | 0.04
G17U G22U C45U | 0.25
G17U G22U C46A | 0.07
G17U G22U G35A | 0.02

Variant | self-cleavage
G17U G27A C31A | 0.33
G17U G27A U38C G44U | 0.02
G17U G27C G33C A39C | 0
G17U G27U A39U | 0.39
G17U G27U C46A | 0.32
G17U G27U G40C C42U C46G | 0.07
G17U G29A A41C C45U | 0.03
G17U G29A C31A | 0.6
G17U G29A C42U | 0
G17U G29C G36C C42U C46A | 0.02
G17U G29U U34G | 0.02
G17U G29U U38C C45A | 0.04
G17U G29U U38C G40U | 0.05
G17U G30C C42G | 0.07
G17U G30C G36U U43A | 0
G17U G30C G44C | 0.1
G17U G30U A41U U43A | 0.01
G17U G30U C31G U32G | 0.04
G17U G30U C31U C42U | 0.04
G17U G30U U34A C42U | 0.02
G17U G33A C37U | 0.04
G17U G33A G36C A41U | 0.2
G17U G33C C37U | 0.02

Source: the RNAGym collection of RNA variant scans (doi:10.7554/elife.90254)
